# Data as given in the supplement of paper PMC8728848.
# This is one part of the list.
# B1: DrGal9 (Danio rerio) (protein)
# chain: MAFYQQPPYYNPRIPFSGPIQGGLQDGKSIIISGRVLPGANRFHVNLQCGSHSEANVALHFNPRYEDTDYVVNNSYLNRTWGSEERKYESPFAQGQTFTLQILVAQDKYKISTNGRHFMDYKHRIPFTQVDTVAVEGMVEVNSVAFQNPAGFIPPQAGYAPQYAVPPGCGFPAFPSAPNYTIPHKTVMNGGLHPGKNIVINGVVNPNAKSIIFNLCYRSGIAFHYNPRFDENVVVRNTNQMEKWGAEERFGGLPFHKGQPFQVTISCNPQHYNVFVNGKQEHTYKHRYTKLNDIDILEICGDLQLTSVQA
# Key:
# Test in all cases: glycan array binding signal (z-score within array); higher = stronger binding
# Settings in all cases: glycan notation: IUPAC condensed, linker removed
# [1] = target: Gal(b1-4)GlcNAc(b1-3)Gal(b1-4)GlcNAc(b1-3)[Gal(b1-4)GlcNAc(b1-3)Gal(b1-4)GlcNAc(b1-6)]GalNAc
# Summary of the method: (§1)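 The Consortium for Functional Glycomics database supplied 3228 glycan arrays, of which those lacking an available protein sequence were dropped. The binding signal, a within-array Z-score, was averaged across arrays of the same protein sequence and across linkers. Negative scores can be read as non-binding.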
# [2] = target: Gal(b1-4)GlcNAc(b1-3)Gal(b1-4)GlcNAc(b1-6)[Gal(b1-3)]GalNAc
# Summary of the method: as §1
# [3] = target: Gal(b1-4)GlcNAc(b1-3)Gal(b1-4)[Fuc(a1-3)]GlcNAc(b1-3)Gal(b1-4)[Fuc(a1-3)]GlcNAc
# Summary of the method: as §1
# [4] = target: Gal(b1-4)GlcNAc(b1-3)GalNAc
# Summary of the method: as §1
# [5] = target: Gal(b1-4)GlcNAc(b1-3)[Fuc(a1-3)GlcNAc(b1-6)]Gal(b1-4)Glc
# Summary of the method: as §1
# [6] = target: Gal(b1-4)GlcNAc(b1-3)[Gal(b1-4)GlcNAc(b1-6)]Gal(b1-4)GlcNAc
# Summary of the method: as §1
# [7] = target: Gal(b1-4)GlcNAc(b1-3)[GlcNAc(b1-6)]Gal(b1-4)GlcNAc
# Summary of the method: as §1
# [8] = target: Gal(b1-4)GlcNAc(b1-6)Gal(b1-4)GlcNAc
# Summary of the method: as §1
# [9] = target: Gal(b1-4)GlcNAc(b1-6)GalNAc
# Summary of the method: as §1
# [10] = target: Gal(b1-4)GlcNAc(b1-6)[Gal(b1-3)]GalNAc
# Summary of the method: as §1
# [11] = target: Gal(b1-4)GlcNAc(b1-6)[Gal(b1-4)GlcNAc(b1-3)]GalNAc
# Summary of the method: as §1
# [12] = target: Gal(b1-4)GlcNAc6P
# Summary of the method: as §1
# [13] = target: Gal(b1-6)Gal
# Summary of the method: as §1
# [14] = target: Gal3S(b1-3)GalNAc
# Summary of the method: as §1
# [15] = target: Gal3S(b1-3)GlcNAc
# Summary of the method: as §1
# [16] = target: Gal3S(b1-3)[Fuc(a1-4)]GlcNAc
# Summary of the method: as §1
# [17] = target: Gal3S(b1-4)Glc
# Summary of the method: as §1
# [18] = target: Gal3S(b1-4)Glc6S
# Summary of the method: as §1
# [19] = target: Gal3S(b1-4)GlcNAc
# Summary of the method: as §1
# [20] = target: Gal3S(b1-4)[Fuc(a1-3)]Glc6S
# Summary of the method: as §1
# [21] = target: Gal3S(b1-4)[Fuc(a1-3)]GlcNAc
# Summary of the method: as §1
# [22] = target: Gal3S(b1-4)[Fuc(a1-3)]GlcNAc6S
# Summary of the method: as §1
# [23] = target: Gal3S4S(b1-4)GlcNAc
# Summary of the method: as §1
# [24] = target: Gal3S6S(b1-4)GlcNAc
# Summary of the method: as §1
# [25] = target: Gal3S6S(b1-4)GlcNAc6S
# Summary of the method: as §1
# [26] = target: Gal4S(b1-4)GlcNAc
# Summary of the method: as §1
# [27] = target: Gal4S6S(b1-4)GlcNAc
# Summary of the method: as §1
# [28] = target: Gal6P(b1-4)GlcNAc
# Summary of the method: as §1
# [29] = target: Gal6S(b1-3)GlcNAc
# Summary of the method: as §1
# [30] = target: Gal6S(b1-3)GlcNAc6S
# Summary of the method: as §1
# [31] = target: Gal6S(b1-4)Glc
# Summary of the method: as §1
# [32] = target: Gal6S(b1-4)Glc6S
# Summary of the method: as §1
# [33] = target: Gal6S(b1-4)GlcNAc
# Summary of the method: as §1
# [34] = target: Gal6S(b1-4)GlcNAc6S
# Summary of the method: as §1
# [35] = target: GalNAc(a1-3)Gal
# Summary of the method: as §1
# [36] = target: GalNAc(a1-3)GalNAc
# Summary of the method: as §1
# [37] = target: GalNAc(a1-3)GalNAc(b1-3)Gal(a1-4)Gal(b1-4)Glc
# Summary of the method: as §1
# [38] = target: GalNAc(a1-3)GalNAc(b1-3)Gal(a1-4)Gal(b1-4)GlcNAc
# Summary of the method: as §1
# [39] = target: GalNAc(b1-3)Gal
# Summary of the method: as §1
# [40] = target: GalNAc(b1-3)Gal(a1-4)Gal(b1-4)GlcNAc
# Summary of the method: as §1
# [41] = target: GalNAc(b1-3)Gal(a1-4)Gal(b1-4)GlcNAc(b1-3)Gal(b1-4)Glc
# Summary of the method: as §1
# [42] = target: GalNAc(b1-3)Gal(a1-6)Gal(b1-4)Glc
# Summary of the method: as §1
# [43] = target: GalNAc(b1-3)GalNAc
# Summary of the method: as §1
# [44] = target: GalNAc(b1-3)GlcNAc
# Summary of the method: as §1
# [45] = target: GalNAc(b1-4)Gal(b1-4)Glc
# Summary of the method: as §1
# [46] = target: GalNAc(b1-4)GlcNAc
# Summary of the method: as §1
# [47] = target: GalNAc(b1-4)GlcNAc(b1-2)Man
# Summary of the method: as §1
# [48] = target: GalNAc(b1-4)GlcNAc(b1-2)Man(a1-3)[GalNAc(b1-4)GlcNAc(b1-2)Man(a1-6)]Man(b1-4)GlcNAc(b1-4)GlcNAc
# Summary of the method: as §1
# [49] = target: GalNAc(b1-4)GlcNAc(b1-3)GalNAc(b1-4)GlcNAc
# Summary of the method: as §1
# [50] = target: GalNAc(b1-4)GlcNAc6S
# Summary of the method: as §1
# [51] = target: GalNAc(b1-6)GalNAc
# Summary of the method: as §1
# [52] = target: GalNAc3S(b1-4)GlcNAc
# Summary of the method: as §1
# [53] = target: GalNAc3S(b1-4)GlcNAc3S
# Summary of the method: as §1
# [54] = target: GalNAc3S(b1-4)[Fuc(a1-3)]GlcNAc
# Summary of the method: as §1
# [55] = target: GalNAc4S6S(b1-4)GlcNAc
# Summary of the method: as §1
# [56] = target: GalNAc6S(b1-4)GlcNAc
# Summary of the method: as §1
# [57] = target: Glc(a1-4)Glc
# Summary of the method: as §1
# [58] = target: Glc(a1-4)Glc(a1-4)Glc(a1-4)Glc
# Summary of the method: as §1
# [59] = target: Glc(a1-6)Glc(a1-6)Glc
# Summary of the method: as §1
# [60] = target: Glc(a1-6)Glc(a1-6)Glc(a1-6)Glc
# Summary of the method: as §1
# [61] = target: Glc(b1-4)Glc
# Summary of the method: as §1
# [62] = target: Glc(b1-6)Glc
# Summary of the method: as §1
# [63] = target: GlcA(b1-3)Gal
# Summary of the method: as §1
# [64] = target: GlcA(b1-3)GlcNAc
# Summary of the method: as §1
# [65] = target: GlcA(b1-6)Gal
# Summary of the method: as §1
# [66] = target: GlcA3S(b1-3)Gal(b1-4)GlcNAc(b1-2)Man
# Summary of the method: as §1
# [67] = target: GlcA3S(b1-3)Gal(b1-4)GlcNAc(b1-3)Gal(b1-4)Glc
# Summary of the method: as §1
# [68] = target: GlcNAc(a1-3)Gal(b1-4)GlcNAc
# Summary of the method: as §1
# [69] = target: GlcNAc(a1-4)Gal(b1-3)GlcNAc
# Summary of the method: as §1
# [70] = target: GlcNAc(a1-4)Gal(b1-4)GalNAc
# Summary of the method: as §1
# [71] = target: GlcNAc(a1-4)Gal(b1-4)GlcNAc
# Summary of the method: as §1
# [72] = target: GlcNAc(a1-4)Gal(b1-4)GlcNAc(b1-3)Gal(b1-4)Glc
# Summary of the method: as §1
# [73] = target: GlcNAc(a1-4)Gal(b1-4)GlcNAc(b1-3)Gal(b1-4)GlcNAc
# Summary of the method: as §1
# [74] = target: GlcNAc(a1-4)Gal(b1-4)GlcNAc(b1-3)Gal(b1-4)GlcNAc(b1-3)Gal(b1-4)GlcNAc
# Summary of the method: as §1
# [75] = target: GlcNAc(a1-4)Gal(b1-4)GlcNAc(b1-3)Gal(b1-4)[Fuc(a1-3)]GlcNAc(b1-3)Gal(b1-4)[Fuc(a1-3)]GlcNAc
# Summary of the method: as §1
binder,measurement,setting,value
B1,glycan array binding signal (z-score),[1],0.065
same,glycan array binding signal (z-score),[2],0.054
same,glycan array binding signal (z-score),[3],-0.086
same,glycan array binding signal (z-score),[4],-0.316
same,glycan array binding signal (z-score),[5],0.213
same,glycan array binding signal (z-score),[6],1.39
same,glycan array binding signal (z-score),[7],0.018
same,glycan array binding signal (z-score),[8],-0.084
same,glycan array binding signal (z-score),[9],-0.202
same,glycan array binding signal (z-score),[10],-0.052
same,glycan array binding signal (z-score),[11],-0.007
same,glycan array binding signal (z-score),[12],-0.383
same,glycan array binding signal (z-score),[13],-0.43
same,glycan array binding signal (z-score),[14],-0.102
same,glycan array binding signal (z-score),[15],0.475
same,glycan array binding signal (z-score),[16],-0.381
same,glycan array binding signal (z-score),[17],-0.058
same,glycan array binding signal (z-score),[18],-0.009
same,glycan array binding signal (z-score),[19],0.209
same,glycan array binding signal (z-score),[20],-0.331
same,glycan array binding signal (z-score),[21],-0.378
same,glycan array binding signal (z-score),[22],0.306
same,glycan array binding signal (z-score),[23],-0.41
same,glycan array binding signal (z-score),[24],-0.365
same,glycan array binding signal (z-score),[25],-0.358
same,glycan array binding signal (z-score),[26],-0.397
same,glycan array binding signal (z-score),[27],-0.382
same,glycan array binding signal (z-score),[28],-0.374
same,glycan array binding signal (z-score),[29],-0.42
same,glycan array binding signal (z-score),[30],-0.377
same,glycan array binding signal (z-score),[31],-0.397
same,glycan array binding signal (z-score),[32],-0.401
same,glycan array binding signal (z-score),[33],-0.415
same,glycan array binding signal (z-score),[34],-0.397
same,glycan array binding signal (z-score),[35],-0.402
same,glycan array binding signal (z-score),[36],-0.378
same,glycan array binding signal (z-score),[37],-0.409
same,glycan array binding signal (z-score),[38],-0.377
same,glycan array binding signal (z-score),[39],-0.193
same,glycan array binding signal (z-score),[40],-0.2
same,glycan array binding signal (z-score),[41],0.311
same,glycan array binding signal (z-score),[42],-0.378
same,glycan array binding signal (z-score),[43],-0.385
same,glycan array binding signal (z-score),[44],-0.023
same,glycan array binding signal (z-score),[45],-0.4
same,glycan array binding signal (z-score),[46],-0.147
same,glycan array binding signal (z-score),[47],0.067
same,glycan array binding signal (z-score),[48],-0.361
same,glycan array binding signal (z-score),[49],0.116
same,glycan array binding signal (z-score),[50],-0.116
same,glycan array binding signal (z-score),[51],-0.414
same,glycan array binding signal (z-score),[52],0.261
same,glycan array binding signal (z-score),[53],-0.34
same,glycan array binding signal (z-score),[54],-0.396
same,glycan array binding signal (z-score),[55],-0.387
same,glycan array binding signal (z-score),[56],-0.41
same,glycan array binding signal (z-score),[57],-0.354
same,glycan array binding signal (z-score),[58],-0.385
same,glycan array binding signal (z-score),[59],-0.382
same,glycan array binding signal (z-score),[60],-0.402
same,glycan array binding signal (z-score),[61],-0.395
same,glycan array binding signal (z-score),[62],-0.405
same,glycan array binding signal (z-score),[63],-0.375
same,glycan array binding signal (z-score),[64],0.506
same,glycan array binding signal (z-score),[65],-0.412
same,glycan array binding signal (z-score),[66],-0.111
same,glycan array binding signal (z-score),[67],0.201
same,glycan array binding signal (z-score),[68],-0.37
same,glycan array binding signal (z-score),[69],-0.402
same,glycan array binding signal (z-score),[70],-0.409
same,glycan array binding signal (z-score),[71],-0.398
same,glycan array binding signal (z-score),[72],-0.148
same,glycan array binding signal (z-score),[73],-0.212
same,glycan array binding signal (z-score),[74],-0.11
same,glycan array binding signal (z-score),[75],-0.37
